Reference: PubChem BioAssay AID624418 (National Center for Advancing Translational Sciences (NCATS), 2012)
Values joined by “and” are separate entries in the source; they are usually repeats but may differ in a detail not shown here. Identical values can stand only once. About 530 (0.13%) of roughly 410,000 compounds were called active. This list was built around the results that the source calls inconclusive (neither active nor inactive); the mix of calls is not that of the screen. Calls come from the whole dose curve; as a rule, active = well fitted inhibition curve with a large enough effect; inconclusive = small, poorly fitted or top-dose-only effect, or another doubt; inactive = no such curve, though single readings can be large or run the other way. A potency beside an inconclusive call is a rough fit, not a confirmed value.

test: qHTS of GLP-1 Receptor Inverse Agonists: Cytotox Screen; conditions: HEK293 cAMP-luciferase reporter cells, luminescence, 24 h; activity change, negative = inhibition: at 38.3 µM (top of the series) unless noted
Outline: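 Quantitative HTS format, 1536 wells, 200 cells/uL seeded. Compounds: 23 nL, 24 h, 37 °C. Detection: luciferase reagent, luminescence at 12 min RT; decreased signal taken as cytotoxic.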
% is set by controls: 0 for no effect and ±100 for the full control effect; potency is the fitted concentration of half-maximal effect.

SMILES	Potency	activity change, negative = inhibition
CCN(CC)c1ccc(/C=C/c2cccc[n+]2C)c(OC)c1	inconclusive: 7.08 µM [inhibitor, partial curve, poor fit]	
CC(C)OCCCN1C(=O)c2[nH]nc(-c3ccccc3O)c2C1c1cccc(OCc2ccccc2)c1 (stereo not given)		inactive: -12.4%
O=C(COC(=O)Cn1cnc2ccccc2c1=O)Nc1ccccc1OC(F)F		inactive: 3.25%
Cc1ccc(Nc2nc(CSc3nnnn3-c3ccccc3)cc(=O)[nH]2)cc1	inconclusive: 11.2 µM [inhibitor, single point]	
O=C(c1ccccc1)c1ccccc1N1C(=O)C=CC1=O	inconclusive: 20 µM [inhibitor, single point]	
CN1CC=C2C(C#N)=C(N)C(C#N)(C#N)[C@H](c3cccc(Cl)c3)C2C1 (stereo not given in full)		inactive: 107%
CN(C)CCC(=O)C(Cc1ccccc1)c1ccccc1 (stereo not given)	inconclusive: 14.1 µM [inhibitor, partial curve, poor fit]	
COCCNC(=S)N/N=C(\C)c1ccccc1OC	inconclusive: 10 µM [inhibitor, partial curve, poor fit]	
C=CCC[C@@H](Cc1ccc(F)cc1)C(=O)OC[C@H](Cc1c[nH]c2ccccc12)NC(=O)[C@H](CC=C)CC(=O)N(CCO)Cc1ccccc1	inconclusive: 10 µM [inhibitor, partial curve]	
CC(C)C(NC(=O)CCNC(=O)c1ccc([N+](=O)[O-])cc1)c1nc2ccccc2[nH]1 (stereo not given)		inactive: 22.9%
CNc1nc(-c2c[nH]c3ccccc23)cs1	inconclusive: 28.2 µM [inhibitor, single point]	
CCOc1ccc2c(c1)c(=O)c(C(=O)c1ccc(C)cc1)cn2Cc1ccccc1OC		inactive: 3.42%
COC(=O)c1cn(C(=O)c2ccc(OC)cc2)c2ccccc12	inconclusive: 10 µM [inhibitor, partial curve, poor fit]	
O=C(CN1CCN(S(=O)(=O)c2ccc(F)cc2)CC1)Nc1ccc(Cl)c(C(F)(F)F)c1	inconclusive: 10 µM [inhibitor, single point]	
CSCc1ccc(C(=O)Nc2ccc(C(N)=O)cc2)cc1		inactive: 7.93%
COc1ccc(OC)c(Nc2c3c(nc4ccccc24)CCC3)c1	inconclusive: 2 µM [inhibitor, full curve] and inconclusive: 3.98 µM [inhibitor, partial curve, poor fit]	
CC(C)(C)c1nc2scc(-c3ccc(Cl)cc3)c2c(=O)o1		inactive: 75.2%
COc1ccc(-c2[nH]c(-c3ccc4c(c3)OCO4)nc2-c2ccccc2)cc1	inconclusive: 12.6 µM [inhibitor, single point]	
Oc1cccc2ccc[n+](CC(O)Cn3c4ccccc4c4ccccc43)c12 (stereo not given)	inconclusive: 12.6 µM [inhibitor, partial curve]	
Oc1ccc(N=Nc2ccc3c(c2)OCCO3)c2ncccc12	active: 10 µM	
O=C(O)c1cccc(Nc2ccc([N+](=O)[O-])c3nonc23)c1	inconclusive: 12.6 µM [inhibitor, single point]	
COc1ccc2c(C)cc(SCC(=O)Nc3cc(C(N)=O)cc(C(N)=O)c3)nc2c1	inconclusive: 17.8 µM [inhibitor, single point]	
COc1ccc(NC(=O)CSc2nc3nc(-c4cccs4)cc(C(F)(F)F)c3c(=O)[nH]2)c(OC)c1		inactive: 13.3%

SMILES	Potency	activity change, negative = inhibition
CN(C(=O)COC(=O)COc1ccccc1F)C1CCS(=O)(=O)C1 (stereo not given)		inactive: 0.142%
COCCNC(=O)CSc1nnc2[nH]c(=O)cc(C)n12		inactive: 6.57%
CC(Nc1oc(-c2ccc(COc3ccc(Cl)cc3)o2)nc1C#N)c1ccccc1 (stereo not given)		inactive: -9.56%
CCOC(=O)Cn1c(=O)n(CC2CCCO2)c2nc(-c3c(F)cccc3Cl)nc(C(N)=O)c21 (stereo not given)		inactive: -0.794%
C=C(C)c1cccc(C(C)(C)NC(=O)N2CCN(C)CC2)c1		inactive: -14.2%
CCCOc1ccc(C2NC(=S)NC(C)=C2C(=O)c2ccccc2)cc1OC (stereo not given)	inconclusive: 11.2 µM [inhibitor, single point]	
COC(=O)CCSc1cc(NCCOC(C)=O)c([N+](=O)[O-])c2nonc12	inconclusive: 12.6 µM [inhibitor, single point]	
Cc1cccc(NC(=S)N/N=C/c2cccc(O)c2)c1C	inconclusive: 14.1 µM [inhibitor, partial curve, poor fit]	
CCC1=NN(C(=O)c2ccccc2[N+](=O)[O-])C(O)(c2ccccc2)C1 (stereo not given)	inconclusive: 14.1 µM [inhibitor, partial curve, poor fit]	
COc1cccc(CNC(=O)CCC(=O)N2CC(C)Sc3ccccc32)c1 (stereo not given)		inactive: 7.35%
CSc1nc(SCC(=O)NC(c2ccccc2)c2ccccc2)c2c3c(sc2n1)CN(C)CC3	inconclusive: 25.1 µM [inhibitor, single point]	
COc1ccc2[nH]c(=O)c(CN(Cc3cccnc3)C(=O)Nc3ccccc3)cc2c1	inconclusive: 22.4 µM [inhibitor, single point]	
CCN(CC(=O)Nc1cccc(OC)c1)C(=O)c1ccncc1	inconclusive: 28.2 µM [inhibitor, single point]	
O=C(CN1CCC(C(O)(c2ccccc2)c2ccccc2)CC1)Nc1ccccc1	inconclusive: 31.6 µM [inhibitor, single point]	
CC1CCCN(c2ncnc3c2cnn3-c2ccccc2)C1 (stereo not given)		inactive: 17.1%
Cc1ccc(-c2cn(-c3ccccc3)c(=S)[nH]2)cc1C		inactive: 3.37%
COc1ccc(/C=N/NS(=O)(=O)c2ccc(C)cc2)cc1OC(=O)c1ccccc1		inactive: -8.43%
COc1ccc(OC(=O)COc2ccc(C)cc2)cc1		inactive: 1.12%
S=C(NCc1ccco1)Nc1cccc(Cl)c1		inactive: -12.2%
COc1ccc(CN2CSC(=S)N(Cc3ccccc3)C2)cc1	inconclusive: 20 µM [inhibitor, single point]	
Cc1ccc(-c2nn(-c3ccccc3)cc2/C=N/NC(=O)CSc2nnc(C)n2-c2ccccc2)cc1	inconclusive: 31.6 µM [inhibitor, single point]	
C=CCC[C@H](Cc1ccc(F)cc1)C(=O)OC[C@@H](Cc1c[nH]c2ccccc12)NC(=O)[C@@H](CC=C)CC(=O)N[C@@H](CO)Cc1ccccc1	inconclusive: 20 µM [inhibitor, single point]	
